# Some of the results follow.
# B1: Pwp2 (Candida glabrata) (protein)
# chain: MGSSHHHHHHSSGLVPRGSHMASKNPVELNNVCTFPNDYGRIPGFTVLVGRLGLLISASDYKELLRYPGAFLIATQDTMTTSPNFELTGFPFFTGLYGLTVFPLDLLVELRGYFVPPNSGQYTFTLSDSDDAAIIFLGNPSAFPCGDLQNWPKPSEEDITVTDHLFPSRTLYLIEGVAYPMRIAYYNGIGAGRLNAAFIDPSGTRHTNWEGYIWQYDPCSTCTYS
# Legend:
# Test in all cases: glycan array binding signal (z-score within array); higher = stronger binding
# Conditions in all cases: glycan notation: IUPAC condensed, linker removed
# Neu5Ac(a2-3)GalNAc = target: Neu5Ac(a2-3)GalNAc
# In short: (§1)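 The binding signal is a Z-score computed within each array and averaged over linkers. Arrays of the same protein sequence at different concentrations or buffers were also averaged together. Data originate from 3228 arrays in the Consortium for Functional Glycomics database, kept only where the protein sequence was available.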
# [1] = target: Neu5Ac(a2-3)GalNAc(b1-4)GlcNAc
# In short: as §1
# [2] = target: Neu5Ac(a2-3)[GalNAc(b1-4)]Gal(b1-4)Glc
# In short: as §1
# [3] = target: Neu5Ac(a2-3)[GalNAc(b1-4)]Gal(b1-4)GlcNAc
# In short: as §1
# [4] = target: Neu5Ac(a2-3)[GalNAc(b1-4)]Gal(b1-4)GlcNAc(b1-3)GalNAc
# In short: as §1
# [5] = target: Neu5Ac(a2-3)[Neu5Ac(a2-6)]GalNAc
# In short: as §1
# Neu5Ac(a2-6)Gal = target: Neu5Ac(a2-6)Gal
# In short: as §1
# [6] = target: Neu5Ac(a2-6)Gal(b1-3)GlcNAc(b1-3)[Gal(b1-4)GlcNAc(b1-6)]Gal(b1-4)Glc
# In short: as §1
# Neu5Ac(a2-6)Gal(b1-4)Glc = target: Neu5Ac(a2-6)Gal(b1-4)Glc
# In short: as §1
# [7] = target: Neu5Ac(a2-6)Gal(b1-4)GlcNAc
# In short: as §1
# [8] = target: Neu5Ac(a2-6)Gal(b1-4)GlcNAc(b1-2)Man
# In short: as §1
# [9] = target: Neu5Ac(a2-6)Gal(b1-4)GlcNAc(b1-2)Man(a1-3)Man(b1-4)GlcNAc(b1-4)GlcNAc
# In short: as §1
# [10] = target: Neu5Ac(a2-6)Gal(b1-4)GlcNAc(b1-2)Man(a1-3)[Gal(b1-4)GlcNAc(b1-2)Man(a1-6)]Man(b1-4)GlcNAc(b1-4)GlcNAc
# In short: as §1
# [11] = target: Neu5Ac(a2-6)Gal(b1-4)GlcNAc(b1-2)Man(a1-3)[GlcNAc(b1-4)][Neu5Ac(a2-6)Gal(b1-4)GlcNAc(b1-2)Man(a1-6)]Man(b1-4)GlcNAc(b1-4)GlcNAc
# In short: as §1
# [12] = target: Neu5Ac(a2-6)Gal(b1-4)GlcNAc(b1-2)Man(a1-3)[Man(a1-6)]Man(b1-4)GlcNAc(b1-4)GlcNAc
# In short: as §1
# [13] = target: Neu5Ac(a2-6)Gal(b1-4)GlcNAc(b1-2)Man(a1-3)[Neu5Ac(a2-3)Gal(b1-4)GlcNAc(b1-2)Man(a1-6)]Man(b1-4)GlcNAc(b1-4)GlcNAc
# In short: as §1
# [14] = target: Neu5Ac(a2-6)Gal(b1-4)GlcNAc(b1-2)Man(a1-3)[Neu5Ac(a2-6)Gal(b1-4)GlcNAc(b1-2)Man(a1-6)]Man(b1-4)GlcNAc(b1-4)GlcNAc
# In short: as §1
# [15] = target: Neu5Ac(a2-6)Gal(b1-4)GlcNAc(b1-2)Man(a1-3)[Neu5Ac(a2-6)Gal(b1-4)GlcNAc(b1-2)Man(a1-6)]Man(b1-4)GlcNAc(b1-4)[Fuc(a1-6)]GlcNAc
# In short: as §1
# [16] = target: Neu5Ac(a2-6)Gal(b1-4)GlcNAc(b1-2)Man(a1-6)Man(b1-4)GlcNAc(b1-4)GlcNAc
# In short: as §1
# [17] = target: Neu5Ac(a2-6)Gal(b1-4)GlcNAc(b1-2)Man(a1-6)[Gal(b1-4)GlcNAc(b1-2)Man(a1-3)]Man(b1-4)GlcNAc(b1-4)GlcNAc
# In short: as §1
# [18] = target: Neu5Ac(a2-6)Gal(b1-4)GlcNAc(b1-2)Man(a1-6)[GlcNAc(b1-2)Man(a1-3)]Man(b1-4)GlcNAc(b1-4)GlcNAc
# In short: as §1
# [19] = target: Neu5Ac(a2-6)Gal(b1-4)GlcNAc(b1-2)Man(a1-6)[Man(a1-3)]Man(b1-4)GlcNAc(b1-4)GlcNAc
# In short: as §1
# [20] = target: Neu5Ac(a2-6)Gal(b1-4)GlcNAc(b1-2)[Neu5Ac(a2-6)Gal(b1-4)GlcNAc(b1-4)]Man(a1-3)[GlcNAc(b1-4)][Neu5Ac(a2-6)Gal(b1-4)GlcNAc(b1-2)[Neu5Ac(a2-6)Gal(b1-4)GlcNAc(b1-6)]Man(a1-6)]Man(b1-4)GlcNAc(b1-4)GlcNAc
# In short: as §1
# [21] = target: Neu5Ac(a2-6)Gal(b1-4)GlcNAc(b1-2)[Neu5Ac(a2-6)Gal(b1-4)GlcNAc(b1-4)]Man(a1-3)[GlcNAc(b1-4)][Neu5Ac(a2-6)Gal(b1-4)GlcNAc(b1-4)Man(a1-6)]Man(b1-4)GlcNAc(b1-4)GlcNAc
# In short: as §1
# [22] = target: Neu5Ac(a2-6)Gal(b1-4)GlcNAc(b1-2)[Neu5Ac(a2-6)Gal(b1-4)GlcNAc(b1-6)]Man(a1-6)[Neu5Ac(a2-6)Gal(b1-4)GlcNAc(b1-2)Man(a1-3)][GlcNAc(b1-4)]Man(b1-4)GlcNAc(b1-4)GlcNAc
# In short: as §1
# [23] = target: Neu5Ac(a2-6)Gal(b1-4)GlcNAc(b1-3)Gal(b1-3)GlcNAc
# In short: as §1
# [24] = target: Neu5Ac(a2-6)Gal(b1-4)GlcNAc(b1-3)Gal(b1-4)GlcNAc
# In short: as §1
# [25] = target: Neu5Ac(a2-6)Gal(b1-4)GlcNAc(b1-3)Gal(b1-4)GlcNAc(b1-2)Man(a1-3)[Neu5Ac(a2-6)Gal(b1-4)GlcNAc(b1-3)Gal(b1-4)GlcNAc(b1-2)Man(a1-6)]GalNAc
# In short: as §1
# [26] = target: Neu5Ac(a2-6)Gal(b1-4)GlcNAc(b1-3)Gal(b1-4)GlcNAc(b1-3)Gal(b1-4)GlcNAc
# In short: as §1
# [27] = target: Neu5Ac(a2-6)Gal(b1-4)GlcNAc(b1-3)Gal(b1-4)GlcNAc(b1-3)Gal(b1-4)GlcNAc(b1-2)Man(a1-3)[Neu5Ac(a2-6)Gal(b1-4)GlcNAc(b1-3)Gal(b1-4)GlcNAc(b1-3)Gal(b1-4)GlcNAc(b1-2)Man(a1-6)]GalNAc
# In short: as §1
# [28] = target: Neu5Ac(a2-6)Gal(b1-4)GlcNAc(b1-3)Gal(b1-4)GlcNAc(b1-3)GalNAc
# In short: as §1
# [29] = target: Neu5Ac(a2-6)Gal(b1-4)GlcNAc(b1-3)Gal(b1-4)GlcNAc(b1-3)[Neu5Ac(a2-6)Gal(b1-4)GlcNAc(b1-3)Gal(b1-4)GlcNAc(b1-6)]GalNAc
# In short: as §1
# [30] = target: Neu5Ac(a2-6)Gal(b1-4)GlcNAc(b1-3)Gal(b1-4)GlcNAc(b1-6)[Gal(b1-3)]GalNAc
# In short: as §1
# [31] = target: Neu5Ac(a2-6)Gal(b1-4)GlcNAc(b1-3)Gal(b1-4)[Fuc(a1-3)]GlcNAc(b1-3)Gal(b1-4)[Fuc(a1-3)]GlcNAc
# In short: as §1
# [32] = target: Neu5Ac(a2-6)Gal(b1-4)GlcNAc(b1-3)GalNAc
# In short: as §1
# [33] = target: Neu5Ac(a2-6)Gal(b1-4)GlcNAc(b1-3)[Neu5Ac(a2-6)Gal(b1-4)GlcNAc(b1-6)]GalNAc
# In short: as §1
# [34] = target: Neu5Ac(a2-6)Gal(b1-4)GlcNAc(b1-6)GalNAc
# In short: as §1
# [35] = target: Neu5Ac(a2-6)Gal(b1-4)GlcNAc(b1-6)[Gal(b1-3)GlcNAc(b1-3)]Gal(b1-4)Glc
# In short: as §1
binder,measurement,setting,value
B1,glycan array binding signal (z-score),Neu5Ac(a2-3)GalNAc,-0.36
same,glycan array binding signal (z-score),[1],-0.407
same,glycan array binding signal (z-score),[2],0.443
same,glycan array binding signal (z-score),[3],-0.488
same,glycan array binding signal (z-score),[4],0.085
same,glycan array binding signal (z-score),[5],0.718
same,glycan array binding signal (z-score),Neu5Ac(a2-6)Gal,-0.621
same,glycan array binding signal (z-score),[6],-0.417
same,glycan array binding signal (z-score),Neu5Ac(a2-6)Gal(b1-4)Glc,-0.356
same,glycan array binding signal (z-score),[7],1.5
same,glycan array binding signal (z-score),[8],-0.406
same,glycan array binding signal (z-score),[9],-0.124
same,glycan array binding signal (z-score),[10],0.06
same,glycan array binding signal (z-score),[11],-0.509
same,glycan array binding signal (z-score),[12],0.092
same,glycan array binding signal (z-score),[13],-0.431
same,glycan array binding signal (z-score),[14],0.268
same,glycan array binding signal (z-score),[15],1.79
same,glycan array binding signal (z-score),[16],-0.349
same,glycan array binding signal (z-score),[17],-0.427
same,glycan array binding signal (z-score),[18],-0.111
same,glycan array binding signal (z-score),[19],0.28
same,glycan array binding signal (z-score),[20],-0.119
same,glycan array binding signal (z-score),[21],0.141
same,glycan array binding signal (z-score),[22],-0.146
same,glycan array binding signal (z-score),[23],-0.459
same,glycan array binding signal (z-score),[24],-0.393
same,glycan array binding signal (z-score),[25],-0.376
same,glycan array binding signal (z-score),[26],-0.474
same,glycan array binding signal (z-score),[27],0.778
same,glycan array binding signal (z-score),[28],0.234
same,glycan array binding signal (z-score),[29],-0.059
same,glycan array binding signal (z-score),[30],-0.388
same,glycan array binding signal (z-score),[31],-0.077
same,glycan array binding signal (z-score),[32],-0.574
same,glycan array binding signal (z-score),[33],-0.245
same,glycan array binding signal (z-score),[34],-1.25
same,glycan array binding signal (z-score),[35],1.86

# — the supplement of paper PMC8728848
